# Laboratory results from PubChem BioAssay AID485313 (National Center for Advancing Translational Sciences (NCATS), 2010).
# Screen size: about 320,000 compounds; about 7,600 (2.4%) were called active. Inconclusive results, whose numbers are uncertain, are shown with a selection of clear calls. Calls come from the whole dose curve; as a rule, active = well fitted activation curve with a large enough effect; inconclusive = small, poorly fitted or top-dose-only effect; inactive = no such curve, though single readings can be large or run the other way. No potency is given beside an inconclusive call; the fits are too rough.
# Test: qHTS Assay for NPC1 Promoter Activators; note: nearly all actives have a fitted effect of over 60% in size
# Details: Huh7 NPC1 promoter luciferase reporter, 24 h; series mostly up to 9.22 µM
# Procedure, shortened: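 Luminescence read-out of NPC1 promoter-driven luciferase in stably transfected Huh7 cells; compounds delivered in DMSO and left 24 h at 37C, 5% CO2, qHTS titration format.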
# Potency is the fitted concentration of half-maximal effect; tags give direction and shape of the fitted curve.
row,Compound,Potency
1,CCOc1ccc(NC(=O)Nc2cccnc2)cc1,"inconclusive [activator, partial curve]"
2,Cc1c(/C=N/NC(=O)CNc2ccccc2)c2ccccn2c1C(=O)c1ccc(Cl)cc1,inactive
3,O=C(Nc1cccc(Cl)c1)c1ccccc1,"inconclusive [activator, partial curve]"
4,Cc1cc(N/N=C/c2ccncc2)nc2ccccc12,"inconclusive [activator, partial curve]"
5,C/C(=C\C(=O)c1ccccc1)Nc1cccc(O)c1,"inconclusive [activator, single point]"
6,O=C(NCCCc1ccccc1)c1ccc(Br)o1,"inconclusive [activator, single point]"
7,Cc1ccc(NC(=O)c2cc(-c3ccccc3O)n[nH]2)cc1C,"inconclusive [activator, partial curve]"
8,CC(=O)c1cccc(NC(=O)C(C)OC(=O)c2cccc(-n3cnnn3)c2)c1 (stereo not drawn),inactive
9,O=C(CCCc1ccccc1)NCc1ccccc1,inactive
10,CC1CN(S(=O)(=O)c2cccc(C(=O)NNC(=O)C(C)Oc3ccccc3F)c2)CC(C)O1 (stereo not drawn),inactive
11,COc1ccc(-n2c(C)cc(/C=C3\SC(=S)NC3=O)c2C)cc1,"inconclusive [activator, partial curve]"
12,O=C(CSc1ncnc2ccccc12)Nc1ccc2c(c1)OCCO2,inactive
13,CN1CCN(c2ccccc2NC(=S)NC(=O)c2cc3ccccc3o2)CC1,inactive
14,Cn1c(C(=O)NCc2cccs2)cc2oc3ccccc3c21,inactive
15,COc1ccc(Cl)cc1NC(=O)c1cc(-c2ccccc2O)n[nH]1,inactive
16,N#Cc1cc2c(nc1SCC1COc3ccccc3O1)CCC2 (stereo not drawn),"inconclusive [activator, single point]"
17,O=c1[nH]c(COc2ccc(Cl)cc2Br)nc2ccccc12,active: 2.82 µM
18,COc1cc(NC(=O)c2cc3ccccc3cc2O)c(OC)cc1Cl,"inconclusive [activator, partial curve, poor fit]"
19,CCOC(=O)c1nc(SC)n(C)c1C(=O)OCC,inactive
20,CCOc1ccc(C(=O)Cc2cc(OC)c(OC)cc2[N+](=O)[O-])cc1,"inconclusive [activator, single point]"
21,O=C(Nc1ccc(N2CCOCC2)nc1)c1cccs1,"inconclusive [activator, partial curve]"
22,COc1ccc2oc(C(=O)Nc3ccc(C)cn3)c(C)c2c1,active: 2.51 µM
23,O=C(C1CC(c2ccccc2O)=NO1)N1CCCCC1 (stereo not drawn),"inconclusive [activator, partial curve]"
24,CCC(CC)c1nnc(NC(=O)C2COc3ccccc3O2)s1 (stereo not drawn),active: 1.58 µM
25,CCc1ccc(NC(=O)C2C3/C=C\CCCCC32)cc1 (stereo not drawn),active: 4.47 µM
26,Cc1ccc(NC(=O)CCCC2CCCCC2)c(O)c1,"inconclusive [activator, partial curve]"
27,C/C(=N\Nc1ccc(C(=O)O)cc1)c1ccc(-n2ccnc2)cc1,active: 2.51 µM

row,Compound,Potency
1,CCOc1cccc(/C=C/c2ccc3ccccc3n2)c1OC(C)=O,active: 0.631 µM
2,COc1ccc(/C=N/c2c(-c3ccco3)nc3ccccn23)cc1OC,"inconclusive [activator, partial curve]"
3,COc1ccc(C(=O)NCCS(=O)(=O)NCCc2ccccc2)cc1,"inconclusive [activator, partial curve]"
4,CC(=O)Nc1ccc2oc(-c3ccccc3)nc2c1,active: 1.26 µM
5,Cc1ccc(NS(=O)(=O)c2ccc3[nH]c(=O)sc3c2)cc1,inactive
6,CC(=O)c1cc2ccc(O)cc2oc1=O,inactive
7,CNS(=O)(=O)c1ccc(NC(=O)c2csc(C)c2)cc1,inactive
8,COc1ccc(C2CC2C(=O)c2ccccn2)cc1 (stereo not drawn),"inconclusive [activator, partial curve]"
9,C/C(CC(=O)N1CCCC1)=N\NC(=O)c1cc2ccccc2cc1O,inactive
10,Fc1cccc(Cl)c1/C=C/c1cnc2ccccc2n1,"inconclusive [activator, single point]"
11,O=C(Nc1ccccc1O)c1ccccc1O,"inconclusive [activator, single point]"
12,CC(=O)Nc1ccc(/C=N/OCC(=O)Nc2ccc(C)cc2)cc1,"inconclusive [activator, partial curve]"
13,Cc1ccc2[nH]c(C(=O)Nc3ccc(F)cc3)cc2c1,"inconclusive [activator, partial curve]"
14,O=C1c2ccccc2C(=O)N1CCc1c[nH]c2ccccc12,"inconclusive [activator, partial curve]"
15,CCCOC(=O)c1ccc(NC(=O)C2C3CCC(C3)C2C(=O)O)cc1 (stereo not drawn),"inconclusive [activator, single point]"
16,Cc1ccc(NC(=S)NC(=O)C2CC2)c(C)c1,"inconclusive [activator, partial curve]"
17,COC(CNC(=O)c1cn(C)c2ccc(S(=O)(=O)N(C)C3CCCCC3)cc2c1=O)OC,inactive
18,Cc1cc(NC(=O)c2cncc(Br)c2)ccc1NC(=O)c1cc2ccccc2o1,inactive
19,Clc1ccccc1Sc1ccc(-c2ccccn2)s1,inactive
20,C/C(N)=C(/C#N)C(=O)CSc1nnc(Nc2cccc(C)c2)s1,"inconclusive [activator, single point]"
21,O=C(CCc1ccccc1)c1ccc2c(c1)OCCCO2,active: 3.16 µM
22,CC(NC(N)=O)C12CC3CC(CC(C3)C1)C2 (stereo not drawn),"inconclusive [activator, single point]"
23,CCc1nnc(NC(=O)C23CC4CC(CC(C4)C2)C3)s1,"inconclusive [activator, single point]"
24,Cc1ccc(C(=O)CCC(=O)Nc2ccccc2C)c(C)c1,inactive
25,O=C(CCCN1C(=O)/C(=C/c2cccs2)SC1=S)Nc1cc([N+](=O)[O-])ccc1O,inactive
26,c1ccc2oc(SCc3cn4ccccc4n3)nc2c1,active: 1.41 µM
